The record followed here is ChEMBL document CHEMBL4888484, “Replenishing the malaria drug discovery pipeline: Screening and hit evaluation of the MMV Hit Generation Library 1 (HGL1) against asexual blood stage Plasmodium falciparum ,using a nano luciferase reporter read-out” (2022).

Among all 150,000 compounds or so, about 540 (0.36%) showed an effect of 50% or more. The list shows a part of the results.

For the assay, the system named is Plasmodium falciparum. The assay is described as follows: Primary screen in NF54 nanoGlo assay, in single point, at 2uM, 72h; a lower Z score goes with more inhibition. The format is functional, Erythrocyte. As to conditions: timepoint 72 hour.
Usually % Inhibition stands for the relative decrease from the control value, in per cent. In the case of `COCCCN1CC(=O)N[C@@H]2CN(C(=O)CCc3cccnc3)CC[C@@H]2OCc2cccc(c2)Oc2cc(ccc2OC)C1`, the “% Inhibition” value was found to be 39% and the Z score is given as -5.44.
In the same order, the values of `CCOC(=O)C(=O)c1cn(C2OCC(OC(C)=O)C(OC(C)=O)C2OC(C)=O)c2ccccc12` (stereo not drawn) are -15% and 2.03.
Taken in the same sequence, the figures for `O=C(NC1CCCCC1)c1ccc2c(c1)NC(=O)[C@@H]1CCCCN21` were 3% and -0.58.
As to `Cn1c(-c2ccc(-c3ccccc3)cc2)cn2cc(-c3ccc(F)cc3)nc12`, the “% Inhibition” value is recorded as -38% and the Z score turned out to be 4.43.
In the same order, the values of `COc1cc(NC(=O)[C@@H](Cc2ccccc2)n2c(=O)[nH]c3ccccc3c2=O)cc(OC)c1` are -13% and 1.64.
Taken in the same sequence, the figures for `O=C(c1ccco1)N1CCN(C(=O)c2ccc(CS(=O)(=O)c3ccc(Br)cc3)o2)CC1` were -4% and 0.65.
On to `CCN(Cc1ccncc1)C1CN(Cc2cccc(F)c2)C1`, for which the “% Inhibition” value was 5% and the Z score was -0.87.
In the same order, the values of `CC(C)N(C)c1nc(N2CCCCC2)nc2c1CN(C(=O)c1cccc(F)c1)CC2` are -25% and 2.7.
As to `COc1ccc(S(=O)(=O)N2CCOC[C@H](OC)C2)cc1`, the “% Inhibition” value is listed as -8% and the Z score was 1.06.
In the case of `C#CCn1ccc(O)c(Cc2ccccc2)c1=O`, the “% Inhibition” value is on record as 47% and the Z score is given as -6.02.
As to `COC(=O)C(NC1CCc2nc(C)nn2C1)c1ccccc1C` (stereo not drawn), the “% Inhibition” value turned out to be 2% and the Z score is reported as -0.3.
As to `CC(C)N(Cc1ccccc1)C(=O)CN1CCC[C@H]1c1ccc2c(c1)OCCCO2`, the “% Inhibition” value was determined as 2% and the Z score was -0.32.
Turning to `Cn1cc(-c2nc(C(=O)NCc3ccccc3F)cs2)c2cccnc21`, the “% Inhibition” value is listed as -16% and the Z score amounted to 2.78.
In the same order, the values of `C#Cc1cccc(N=C(NCCS(=O)(=O)CC)Nc2ccn[nH]2)c1` are -7% and 0.95.
With `Cc1cc(C)nc(O[C@H]2CCCN(C(=O)C(C)(C)Oc3ccc(Cl)cc3)C2)n1`, the “% Inhibition” value stood at 3% and the Z score is -0.46.
In the same order, the values of `CCc1nc(C)sc1CNc1nc(-c2cccnc2)nc2c1cnn2C` are -5% and 0.68.
Taken in the same sequence, the figures for `CC1CCC(OC2CCN(c3ccc4nnnn4n3)CC2)CC1` (stereo not drawn) were -3% and 0.26.
Taken in the same sequence, the figures for `OCCn1ccc([C@H]2CCCN(Cc3cc4c(cc3Cl)OCO4)C2)n1` were -8% and 0.97.
On to `OCc1ccc(CNCCCNc2ccccc2)o1`, for which the “% Inhibition” value was -9% and the Z score worked out at 1.25.
Taken in the same sequence, the figures for `Cc1c(S(=O)(=O)N2CCOCC2)c(C)n(C)c1C(=O)N1CCCC[C@@H]1C` were 3% and -0.54.
Taken in the same sequence, the figures for `COc1ccc(OCC(=O)Nc2ccc3c(c2)NC(=O)[C@H](C)O3)cc1` were -3% and 0.48.
In the same order, the values of `COc1ccc(-c2c(C)nn3c2NC(=O)CCC3=O)cc1S(=O)(=O)N1CCCc2ccccc21` are -11% and 1.36.
`COc1ccccc1N1CCN(C(=O)c2cc(-c3ccc(F)cc3)[nH]c2C)CC1`: the “% Inhibition” value was -2% and the Z score came to 0.3.
In the same order, the values of `CCC[C@@H](C(=O)NCC(=O)OCC)c1ccccn1` are -37% and 4.33.
On to `C[C@H]1CCC(=O)N1c1ccc(NC(=O)c2cnc[nH]2)cc1`, for which the “% Inhibition” value is listed as 1% and the Z score is on record as -0.2.
In the same order, the values of `CC(=O)N(C)c1cccc(NC(=O)N[C@@H](C)C2=CCCCC2)c1` are -17% and 1.51.
Turning to `CCN(C[C@H]1CCOC1)C(=O)Cn1nnc2ccccc21`, the “% Inhibition” value is recorded as 1% and the Z score is given as -0.11.
With `CCn1c(-c2cc(NC(=O)Cc3ccc(F)cc3)[nH]n2)cc2ccc(OC)cc21`, the “% Inhibition” value was 6% and the Z score is reported as -1.06.
Regarding `CCC[C@@H](CCC(=O)Nc1ccc(OCC)cc1)C(=O)O`, the “% Inhibition” value was -8% and the Z score was determined as 0.89.
As for `CC1(C)CN(C(=O)CCc2ccco2)CC[S@+]1[O-]`, the “% Inhibition” value was -6% and the Z score is listed as 1.22.
In the same order, the values of `Cc1cccc(NC(=O)C2CCN(S(=O)(=O)c3cc(C(=O)N4CCOCC4)cs3)CC2)c1C` are -6% and 0.99.
As to `CC[C@@H](CC#N)NC(=O)c1[nH]cnc1C(C)(C)C`, the “% Inhibition” value is recorded as 0% and the Z score is given as -0.03.
Taken in the same sequence, the figures for `Cc1c(F)cccc1NC(=O)N[C@H]1CCN(c2ccc(F)cc2)C1=O` were -3% and 0.48.
Taken in the same sequence, the figures for `C[C@H]1CCCN(CCCNC(=O)C2CCN(c3ncnc4c3nc3n4CCCCC3)CC2)C1` were -7% and 1.2.
Taken in the same sequence, the figures for `Cc1ccc(OC2CN(CC[C@H](O)c3ccccc3)C2)cc1` were 0% and 0.06.
Regarding `O=c1cc(O)c2ccccc2n1-c1ccccc1`, the “% Inhibition” value turned out to be 3% and the Z score is reported as -0.43.
Turning to `CCOc1ccccc1CNS(=O)(=O)c1cc(-c2cnn3c(C)cc(C)nc23)ccc1C`, the “% Inhibition” value is given as -11% and the Z score was determined as 1.05.
In the case of `CC1CCN(c2nc3c(c(Oc4cccc(F)c4)n2)CN(Cc2ccccn2)CC3)CC1`, the “% Inhibition” value came to 46% and the Z score was -2.5.
As to `Cc1nc(-c2c(-c3ccccc3)ncn2C[C@H]2COc3ccccc3O2)c[nH]1`, the “% Inhibition” value is -6% and the Z score is reported as 0.59.
For the compound `CCC1CCN(C(=O)c2cn3c(n2)C[C@@H](C)CC3)CC1`, the “% Inhibition” value is -11% and the Z score amounted to 1.27.
Taken in the same sequence, the figures for `CCn1cncc1CNC(=O)CCc1cn[nH]c1` were 11% and -2.12.
In the same order, the values of `CCC[C@H](Nc1nc(C)nc2ncccc12)c1cccs1` are -10% and 1.87.
On to `O=S(=O)(N1CCCCC1)N(CCOc1ccccc1)C[C@H]1CCCO1`, for which the “% Inhibition” value is -13% and the Z score was determined as 1.97.
Turning to `CCN1C(=O)COc2cc(NC(=O)N[C@@H](C)c3ncnn3CC)ccc21`, the “% Inhibition” value came to 5% and the Z score was -1.01.
For `CC(C)c1ocnc1C(=O)N1CCC(NC(=O)c2ccoc2)CC1`, the “% Inhibition” value was -1% and the Z score stood at 0.11.
Taken in the same sequence, the figures for `O=C(NC[C@H]1COCCO1)c1ccccc1NC(=O)c1nsc2ccccc12` were -3% and 0.51.
For `COc1ccccc1NC(=O)C(=O)N1CCOCC1`, the “% Inhibition” value stood at 2% and the Z score is on record as -0.47.
In the same order, the values of `CCCn1cnnc1CNC1CCN(c2nc3ccccc3o2)CC1` are -2% and 0.25.
Taken in the same sequence, the figures for `Cc1nn(C(C)C)cc1CN1CCCC2(CCCCO2)C1C#N` (stereo not drawn) were -7% and 0.81.
Taken in the same sequence, the figures for `O=C(CCc1ccc(S(=O)(=O)N2CCCCCC2)cc1)Nc1ccc(Br)cc1F` were -14% and 1.2.
With `COc1ccc(CCNC(=O)c2c(C)noc2-c2cccnc2)cc1OC`, the “% Inhibition” value was -13% and the Z score is 2.17.
In the same order, the values of `COc1ccc(CN2CN=C(NS(C)(=O)=O)NC2)cc1OC` are 6% and -0.73.
In the same order, the values of `Cc1ncsc1C(=O)OC1CCN(CC(F)(F)F)CC1` are -7% and 1.05.
For `CC(C)(NC(=O)c1ncoc1C1CC1)c1cccs1`, the “% Inhibition” value was 2% and the Z score is on record as -0.33.
For `NC(=O)c1ccnc(N2CCC[C@]3(CCC(=O)N(C4CCCC4)C3)C2)c1`, the “% Inhibition” value is given as -7% and the Z score was determined as 1.32.
Taken in the same sequence, the figures for `O=C1CN(CCc2cccs2)CCN1c1cccs1` were 5% and -0.75.
In the case of `Fc1cnccc1NCc1c[nH]nc1-c1cccnc1`, the “% Inhibition” value is reported as -38% and the Z score is recorded as 4.46.
In the same order, the values of `COc1ccc(CCC(=O)Nc2ccc(Cn3cnc(C(=O)Nc4cccc(Cl)c4)c3)cc2)cc1` are -7% and 0.85.
In the same order, the values of `O=C(Cc1cccc(Br)c1)NCC1(O)CCC1` are -9% and 1.19.
Taken in the same sequence, the figures for `c1cnn(-c2ccc(-c3cnc4ncnn4c3)cc2)c1` were -10% and 0.96.
With `COc1ccc(Cl)cc1N1C(=O)C2C(CC(N)=O)NC3(C(=O)Nc4ccccc43)C2C1=O` (stereo not drawn), the “% Inhibition” value is 2% and the Z score is on record as -0.21.
In the same order, the values of `CC(C)n1cnnc1CN1CC[C@](C)(O)[C@@H](O)C1` are -10% and 1.49.
As to `CCCc1noc(CN(CC)Cc2ccncc2)n1`, the “% Inhibition” value is recorded as 12% and the Z score is given as -1.57.
Taken in the same sequence, the figures for `O=C(NC1CCCCC1)Oc1cc2oc(=O)sc2cc1Br` were 27% and -3.06.
Taken in the same sequence, the figures for `Cc1cc(NC(=O)CC2CCC2)nc(=O)[nH]1` were -5% and 0.65.
Taken in the same sequence, the figures for `COc1ccc2[nH]c3c(c2c1)CCN(C)C31CCN(C(=O)c2cn(C)cn2)CC1` were -16% and 2.18.
Consider `CC(C)OC[C@@H](O)CN(Cc1c(C(C)C)nn(-c2ccccc2)c1Oc1cccc(F)c1)C1CC1`, for which the “% Inhibition” value was -1% and the Z score came to 0.11.
Taken in the same sequence, the figures for `C=C(C)COc1ccccc1NC(=O)[C@@H]1CCCN1CC` were -12% and 2.23.
Taken in the same sequence, the figures for `C[C@H]1CN(C(=O)NCc2nc3ccccc3s2)CCO1` were -4% and 0.82.
In the same order, the values of `COC(=O)CCN(CC(C)C)C(=O)c1cccc(NC(C)=O)c1` are 10% and -1.04.
For the compound `CCC1=NO[C@@H](CNC(=O)c2c[nH]nc2-c2ccccc2)C1`, the “% Inhibition” value is given as -8% and the Z score worked out at 1.17.
Taken in the same sequence, the figures for `Cc1cc(C)c(NC(=O)[C@@H]2CN(S(=O)(=O)c3ccccc3)c3cc(C(C)(C)C)ccc3O2)c(C)c1` were -20% and 2.59.
Taken in the same sequence, the figures for `O=C(NCc1ccc(OCc2cccnc2)cc1)c1ccc(Br)cc1F` were -3% and 0.47.
Taken in the same sequence, the figures for `O=C(Nc1ccc(N2CCCN(Cc3ccc(Cl)c(Cl)c3)C2=O)cc1)OCc1ccccc1` were 6% and -1.2.
Turning to `Cc1ccc2c(c1)N(Cc1cccc(F)c1)N=C(C(=O)N1CCCCCC1)S2(=O)=O`, the “% Inhibition” value is -11% and the Z score was 1.83.
Taken in the same sequence, the figures for `O=C1C(=O)N(C2CCCCC2)C(=O)N1Cc1cccc2ccccc12` were -5% and 0.7.
In the same order, the values of `FC(F)c1csc(Cn2cccn2)n1` are 12% and -1.08.
In the same order, the values of `O=C(Cc1n[nH]c(=O)c2ccccc12)Nc1ccncc1` are -13% and 1.36.
`Cc1ncc(C(=O)N[C@@H](C)C2CCN(CC(F)(F)F)CC2)c(C2CC2)n1`: the “% Inhibition” value stood at 2% and the Z score is on record as -0.31.
In the same order, the values of `CNC(=O)c1c(C)n[nH]c1NCc1ccc(Cl)o1` are -13% and 2.
Taken in the same sequence, the figures for `O=C1NCCC[C@H]1c1nc(-c2cccc(CN3CCCCC3)c2)no1` were 11% and -1.49.
Taken in the same sequence, the figures for `OC1=Nc2c(ncn2-c2cccnc2)[C@@H](c2cccc(Cl)c2Cl)C1` were 11% and -1.43.
On to `CCCn1nccc1S(=O)(=O)NCC1(CO)CCOCC1`, for which the “% Inhibition” value amounted to 4% and the Z score is -0.61.
In the same order, the values of `CCCN(C(=O)c1cnc(C2CC2)nc1)[C@H]1CCCc2cccnc21` are -5% and 0.98.
